Measured values reported in PubChem BioAssay (Tox21).
Where “and” joins values, the source holds several entries; their conditions need not be identical. Equal values may be shown once. The inconclusive results got no clear call from the source; some entries with a clear call stand among them for comparison. Potencies of inconclusive entries are doubtful fits and often do not repeat. The source holds several records for some structures; these can differ, active in one and inactive in another. Calls of active or inactive are those of the source. The call rests on the fitted dose curve; in most records, active means well fitted curve in the direction sought with a large enough effect in the repeat runs; inconclusive means weak or mixed curves; inactive means no such curve, though single readings can be large; an effect the other way counts as inactive or inconclusive.

tested on: not listed separately; assay: Caspase-3/7 induction in HepG2 cells by small molecules, qHTS cell viability counter screen (AID 1346981); settings: CellTiter-Fluor fluorescence, 17 h; series mostly up to 92.4 µM; activity change, negative = cytotoxicity: at the top concentration; further: nearly all actives have a fitted effect of over 30% in size
Method in brief: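 Wild-type HepG2 cells, 2,000/well, settled 5 hr at 37 C, 5% CO2 before compound addition. Viability read by CellTiter-Fluor fluorescence, reagent added after 16 hr compound exposure, then 1 hr at 37C, in the same wells as the caspase read.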
On the % scale 0 is the no-effect control and ±100 the full control effect; potency means the concentration at half of the fitted maximal effect; tags describe the fitted curve by direction and shape.

For `CCC[CH2][Sn]([CH2]CCC)([O]C(C)=O)[O]C(C)=O`, which Potency is on record?
Its Potency is active: 49 µM.

With `CCOC(=O)C(O)(c1ccc(Cl)cc1)c1ccc(Cl)cc1` as the molecule, how does the Potency read?
The Potency was inconclusive: 69.3 µM [cytotoxic, single point] and inconclusive: 68.6 µM [cytotoxic, single point].

Which Potency does the source give for `c1ccc(Nc2ccc3ccccc3c2)cc1` here?
The Potency was inconclusive: 68.2 µM [cytotoxic, partial curve] and inconclusive: 68.6 µM [cytotoxic, single point].

For `Cc1cc(C(C)(C)c2cc(C)c(O)c(C)c2)cc(C)c1O`, which Potency is on record?
Its Potency is active: 52.7 µM.

Which Potency does the source give for `CCC[CH2][Sn]([Cl])([CH2]CCC)[CH2]CCC` here?
The Potency was active: 1.94 µM and active: 4.33 µM.

With `C=C(C)[C@H]1Cc2c(ccc3c2O[C@@H]2COc4cc(OC)c(OC)cc4[C@@H]2C3=O)O1` as the molecule, how does the Potency read?
Its Potency is active: 39.1 µM and active: 30.6 µM and active: 5.31 µM.

Which Potency does the source give for `CC(=O)[O][Pb]([c]1ccccc1)([c]1ccccc1)[c]1ccccc1` here?
Its Potency is active: 10.9 µM.

Which Potency does the source give for `O=[N+]([O-])c1ccc(F)c([N+](=O)[O-])c1` here?
Its Potency is active: 27.6 µM.

Which Potency does the source give for `Oc1ccc(Cl)cc1Cc1ccccc1` here?
Its Potency is inconclusive: 77 µM [cytotoxic].

For `C=CC(=O)OCCCCOC(=O)C=C`, which Potency is on record?
Its Potency is inconclusive: 61.1 µM [cytotoxic, single point].

With `Oc1ccc(C2(c3ccc(O)cc3)CCCCC2)cc1` as the molecule, how does the Potency read?
The Potency was active: 51.6 µM.

With `NNC(=O)c1ccccc1` as the molecule, how does the “activity change, negative = cytotoxicity” value read?
Its value is inactive: 7.22%.

With `O=S(=O)(Oc1ccc(Cl)cc1)c1ccc(Cl)cc1` as the molecule, how does the Potency read?
Its Potency is inconclusive: 24.3 µM [rising, partial curve].

With `O=C1C2(Cl)C3(Cl)C4(Cl)C(Cl)(Cl)C5(Cl)C3(Cl)C1(Cl)C5(Cl)C24Cl` (stereo not drawn) as the molecule, how does the Potency read?
The Potency was active: 60.1 µM and inconclusive: 65.7 µM [cytotoxic].

For `CCCCCCCCCCCCCCCC[N+](C)(C)C`, which Potency is on record?
The Potency was inconclusive: 26.3 µM [cytotoxic, partial curve] and active: 68.6 µM and inconclusive: 33.5 µM [cytotoxic, single point].

target: Nuclear receptor subfamily 1 group I member 2 (Homo sapiens) (UniProt O75469); assay: Human pregnane X receptor (PXR) small molecule agonists, qHTS assay (AID 1346982); settings: PXR-Luc HepG2, CYP3A4 luciferase reporter, 24 h; series mostly up to 92.4 µM; activation: at the top concentration; further: nearly all actives have a fitted effect of over 35% in size
Method in brief: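 PXR-Luc HepG2 reporter cells (CYP3A4-driven luciferase) in 5% charcoal-stripped FBS medium, plated 5 h before compound addition, then treated 24 h at 37C. Luciferase read by ONE-Glo luminescence after 30 min at room temperature.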

Chain of UniProt O75469 (O75469 whole entry, looked up): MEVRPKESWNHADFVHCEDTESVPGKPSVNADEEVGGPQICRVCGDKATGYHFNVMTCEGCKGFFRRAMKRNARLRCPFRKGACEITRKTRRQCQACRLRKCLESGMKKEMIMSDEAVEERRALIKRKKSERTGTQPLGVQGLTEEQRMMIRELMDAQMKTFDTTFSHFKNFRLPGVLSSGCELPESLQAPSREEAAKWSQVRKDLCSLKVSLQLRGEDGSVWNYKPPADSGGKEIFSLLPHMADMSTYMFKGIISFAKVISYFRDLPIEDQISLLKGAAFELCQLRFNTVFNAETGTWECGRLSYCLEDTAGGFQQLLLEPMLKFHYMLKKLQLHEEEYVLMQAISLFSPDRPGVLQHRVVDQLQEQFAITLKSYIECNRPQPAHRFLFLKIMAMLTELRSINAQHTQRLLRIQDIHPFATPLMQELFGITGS

Which Potency does the source give for `ClC1=C(Cl)[C@]2(Cl)[C@@H]3[C@@H](Cl)[C@H]4O[C@H]4[C@@H]3C1(Cl)C2(Cl)Cl` here?
The Potency was active: 30.6 µM.

For `ClC1=C(Cl)C2(Cl)C3C(Cl)C=CC3C1(Cl)C2(Cl)Cl` (stereo not drawn), which Potency is on record?
Its Potency is inconclusive: 68.9 µM [activator, single point] and inconclusive: 68.6 µM [activator].

For `O=Cc1ccccc1`, which “activation” value is on record?
The value was inactive: 0.783%.

For `CNP(=O)(OC)Oc1ccc(C(C)(C)C)cc1Cl` (stereo not drawn), which Potency is on record?
Its Potency is active: 17.2 µM.

Which Potency does the source give for `ClC1C(Cl)C(Cl)C(Cl)C(Cl)C1Cl` (stereo not drawn) here?
Its Potency is inconclusive: 34.7 µM [activator, partial curve].

With `CC(C)N(C(=O)SC/C(Cl)=C/Cl)C(C)C` as the molecule, how does the Potency read?
The Potency was inconclusive: 21.8 µM [activator, partial curve].

With `CCC(C)c1ccc(O)cc1` (stereo not drawn) as the molecule, how does the Potency read?
Its Potency is inconclusive: 77.7 µM [activator, partial curve, poor fit].

For `O=C(Cc1ccccc1)OCCc1ccccc1`, which “activation” value is on record?
Its value is inactive: -0.534%.

With `Clc1ccccc1-c1ccccc1Cl` as the molecule, how does the Potency read?
Its Potency is inconclusive: 78.1 µM [activator, partial curve, poor fit].

Which Potency does the source give for `CC(=O)/C=C/c1ccccc1` here?
The Potency was inconclusive: 77 µM [activator, partial curve, poor fit].

With `C[C@H](CN1CCOCC1)C(C(=O)N1CCCC1)(c1ccccc1)c1ccccc1` as the molecule, how does the Potency read?
Its Potency is inconclusive: 21 µM [activator, partial curve, poor fit].

For `O=C(O)C1C2CCC(O2)C1C(=O)O` (stereo not drawn), which Potency is on record?
Its Potency is inconclusive: 69.4 µM [activator, single point].

With `Brc1ccc(Oc2ccccc2)cc1` as the molecule, how does the Potency read?
The Potency was inconclusive: 88.5 µM [activator, single point] and inactive.

With `CCCCNC(=O)n1c(NC(=O)OC)nc2ccccc21` as the molecule, how does the Potency read?
The Potency was inconclusive: 68.6 µM [activator, partial curve, poor fit].

Which Potency does the source give for `COC(=O)NC(=S)Nc1ccccc1NC(=S)NC(=O)OC` here?
The Potency was active: 61.1 µM and active: 48.6 µM.

With `c1ccc2c(c1)[nH]c1cnccc12` as the molecule, how does the Potency read?
The Potency was inconclusive: 61.2 µM [activator, single point].

With `Clc1ccc(C(Cl)(Cl)Cl)cn1` as the molecule, how does the “activation” value read?
Its value is inactive: 11.1%.

Which Potency does the source give for `O=[N+]([O-])c1c(Cl)c(Cl)cc(Cl)c1Cl` here?
The Potency was inconclusive: 27.3 µM [activator, single point].
